According to ChEMBL document CHEMBL5606460, “ASAP - DENV-2 NS2B-NS3 protease fluorescence single point” (2024):
In all, about 2,000 compounds went through this assay and about 110 (5.5%) showed an effect of 50% or more. The list shows a part of the results.

Biological target: Genome polyprotein (dengue virus type 2) (UniProt P29990)
[1] = Thailand/16681/1984, Concentration 25.0 uM, Number of replicates 1.0

## CNC(=O)c1cc(Cl)ccc1NS(=O)(=O)Cc1cccnc1
Thailand/16681/1984, Concentration 49.5 uM, Number of replicates 2.0, Standard deviation 1.2365897154213892 %
  inhibition: -3.14%
Thailand/16681/1984, Concentration 99.01 uM, Number of replicates 2.0, Standard deviation 0.7189918552918315 %
  inhibition: -5.5%

## CN(Cc1cccc([N+](=O)[O-])c1)C(=O)C1CCN(c2ccc(C=O)cc2)CC1
[1]
  inhibition: 14.4%

## CNC(=O)c1cc(Cl)ncc1NS(=O)(=O)c1ccc(Oc2ccccc2Cl)cc1
Thailand/16681/1984, Concentration 49.5 uM, Number of replicates 2.0, Standard deviation 0.003826975991637689 %
  inhibition: -0.629%
Thailand/16681/1984, Concentration 99.01 uM, Number of replicates 2.0, Standard deviation 0.08610681229787821 %
  inhibition: -0.288%
Thailand/16681/1984, Concentration 198.0 uM, Number of replicates 2.0, Standard deviation 0.5032468582115982 %
  inhibition: 12.6%

## C[C@H]1CCCCN1CCCNC(=O)C1CCN(c2ccc(C=O)cc2)CC1
[1]
  inhibition: 10.3%

## Cn1nc(-c2ccccc2)cc1CN1CCC(c2c[nH]c3cccnc23)CC1
Thailand/16681/1984, Concentration 49.5 uM, Number of replicates 2.0, Standard deviation 2.7674524360685093 %
  inhibition: -4.34%
Thailand/16681/1984, Concentration 99.01 uM, Number of replicates 2.0, Standard deviation 2.3595903445048867 %
  inhibition: -0.982%
Thailand/16681/1984, Concentration 198.0 uM, Number of replicates 2.0, Standard deviation 2.863984071148027 %
  inhibition: 1.79%

## NS(=O)(=O)c1cscc1CNCc1nnc2ccccn12
Thailand/16681/1984, Concentration 49.5 uM, Number of replicates 2.0, Standard deviation 0.7378652140550099 %
  inhibition: -5.3%
Thailand/16681/1984, Concentration 99.01 uM, Number of replicates 2.0, Standard deviation 2.175818747495139 %
  inhibition: -3.74%
Thailand/16681/1984, Concentration 198.0 uM, Number of replicates 2.0, Standard deviation 3.281635221356926 %
  inhibition: -3.71%

## Cc1cc(CO)c2cccc(CC(=O)N3CC4(CCCOC4)C3)c2n1
Thailand/16681/1984, Concentration 49.95 uM, Number of replicates 2.0, Standard deviation 0.772673116128399 %
  inhibition: -6.59%
Thailand/16681/1984, Concentration 99.9 uM, Number of replicates 2.0, Standard deviation 1.1105448445025274 %
  inhibition: -6.27%

## CCOc1ccccc1CNC(=O)C1CCN(c2ccc(C=O)cc2)CC1
[1]
  inhibition: 12.1%

## Cn1cc(NC(=O)c2ccccc2C(F)(F)F)c(-c2cccc(CO)c2)n1
Thailand/16681/1984, Concentration 49.5 uM, Number of replicates 2.0, Standard deviation 0.6307028056186048 %
  inhibition: -4.03%
Thailand/16681/1984, Concentration 99.01 uM, Number of replicates 2.0, Standard deviation 3.6654170060517894 %
  inhibition: -4.22%
Thailand/16681/1984, Concentration 198.0 uM, Number of replicates 2.0, Standard deviation 3.1544802024482874 %
  inhibition: -2.91%

## COc1cccc([C@H](C)NC(=O)C2CCN(c3ccc(C=O)cc3)CC2)c1
[1]
  inhibition: 12.7%

## C[C@@H](CNc1cc(Cl)cc(C(=O)NC(C)(C)CO)c1)c1ccc(F)cc1
Thailand/16681/1984, Concentration 49.5 uM, Number of replicates 2.0, Standard deviation 1.7964155145983758 %
  inhibition: -4.87%
Thailand/16681/1984, Concentration 99.01 uM, Number of replicates 2.0, Standard deviation 2.367041527999976 %
  inhibition: -8.66%

## O=Cc1ccc(N2CCC(C(=O)NCCc3ccc(OC(F)(F)F)cc3)CC2)cc1
[1]
  inhibition: 14.5%

## Cc1ncc(CO)c(CNC(=O)C2CCN(c3ccc(C=O)cc3)CC2)c1O
[1]
  inhibition: 9.53%

## O=Cc1ccc(N2CCC(C(=O)N3Cc4ccccc4C[C@@H]3CO)CC2)cc1
[1]
  inhibition: 13.8%

## Cc1cn2nnc(C(=O)N3CCC[C@H](c4nc(=O)[nH][nH]4)C3)c2c(=O)[nH]1
Thailand/16681/1984, Concentration 49.5 uM, Number of replicates 2.0, Standard deviation 1.1306810071407891 %
  inhibition: -1.83%
Thailand/16681/1984, Concentration 99.01 uM, Number of replicates 2.0, Standard deviation 1.1436614778388714 %
  inhibition: -1.38%
Thailand/16681/1984, Concentration 198.0 uM, Number of replicates 2.0, Standard deviation 0.31245549284811885 %
  inhibition: -1.83%

## CNC(=O)C[C@H]1CCCN1S(=O)(=O)c1ccc(Oc2ccccc2Cl)cc1
Thailand/16681/1984, Concentration 49.5 uM, Number of replicates 2.0, Standard deviation 0.32757728686835763 %
  inhibition: -0.145%
Thailand/16681/1984, Concentration 99.01 uM, Number of replicates 2.0, Standard deviation 1.5700018436077314 %
  inhibition: 1.46%
Thailand/16681/1984, Concentration 198.0 uM, Number of replicates 2.0, Standard deviation 0.26515981673573996 %
  inhibition: 3.55%

## N[C@H]1CCN(c2cccc(CNC(=O)c3ccc4[nH]c(=O)[nH]c4c3F)n2)C1
Thailand/16681/1984, Concentration 49.5 uM, Number of replicates 2.0, Standard deviation 0.5004190364841841 %
  inhibition: 0.031%
Thailand/16681/1984, Concentration 99.01 uM, Number of replicates 2.0, Standard deviation 0.5874940461860545 %
  inhibition: 0.034%
Thailand/16681/1984, Concentration 198.0 uM, Number of replicates 2.0, Standard deviation 2.120224019736177 %
  inhibition: 3.2%

## CN(C)c1ccc(/C=C/C(=O)C(=O)N2CCOCC2)cc1
Thailand/16681/1984, Concentration 49.5 uM, Number of replicates 2.0, Standard deviation 1.4993650320557768 %
  inhibition: 37.9%
Thailand/16681/1984, Concentration 99.01 uM, Number of replicates 2.0, Standard deviation 1.3662996762867583 %
  inhibition: 59.5%
Thailand/16681/1984, Concentration 198.0 uM, Number of replicates 2.0, Standard deviation 0.7538742729933879 %
  inhibition: 78.8%

## Cc1nc(Cl)c(NC(=O)C2CCN(c3ccc(C=O)cc3)CC2)c(Cl)n1
[1]
  inhibition: 12.8%

## COCCCN1CCN(C(=O)C2CCN(c3ccc(C=O)cc3)CC2)CC1
[1]
  inhibition: 11.8%

## COc1cc(Cc2cccc3[nH]nnc23)nc(N2CCNCC2)n1
Thailand/16681/1984, Concentration 49.5 uM, Number of replicates 2.0, Standard deviation 0.08725206861246473 %
  inhibition: 2.28%
Thailand/16681/1984, Concentration 99.01 uM, Number of replicates 2.0, Standard deviation 0.07153584597754044 %
  inhibition: 3.03%
Thailand/16681/1984, Concentration 198.0 uM, Number of replicates 2.0, Standard deviation 0.0010836797689121073 %
  inhibition: 5.35%

## CNC(=O)c1ccncc1NS(=O)(=O)c1ccc(Oc2ccccc2Cl)cc1
Thailand/16681/1984, Concentration 49.5 uM, Number of replicates 2.0, Standard deviation 3.023334340601001 %
  inhibition: -2.48%
Thailand/16681/1984, Concentration 99.01 uM, Number of replicates 2.0, Standard deviation 3.20078374174672 %
  inhibition: -0.672%
Thailand/16681/1984, Concentration 198.0 uM, Number of replicates 2.0, Standard deviation 2.339843576600017 %
  inhibition: 2.95%
